Assay results: the supplement of paper PMC11417369
± gives the standard deviation of the averaged measurements. The list shows a part of the results.

These sequences were tested on PfAP2-I AP2 domain 3 (GST-tagged) (assay: gcPBM binding intensity (ln(normalized median fluorescence intensity)); higher = stronger DNA binding).
In short: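 Binding intensity is defined as the maximum Masliner-normalised natural-log median intensity across replicate spots for either probe orientation. It was measured on an Agilent 4 × 180k array of primer-extended double-stranded 36-bp intergenic genomic probes and negative controls, to which GST-tagged P. falciparum DNA-binding domains made in E. coli were applied for 1 h in 1× PBS with 1% milk, 0.2 mg/ml BSA, 0.5% salmon testes DNA and 0.03% Triton X-100. Detection was by Alexa488 anti-GST antibody and scanning at 488 nm.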

| Sequence | gcPBM binding intensity (ln) |
| --- | --- |
| TAAAACAAAATGGTAACACACACATATATATATATA [CACACA_site8590] | 9.26 ± 0.49 |
| AAATGGAAATTAATATGTACATATTTATAAGTATGA [XGTACX_site1774] | 7.84 ± 0.5 |
| AATATATAAATATATATAAATAAATATATATATAAA [CACACA_negctrl_site49] | 6.99 ± 0.28 |
| TCTTTTCTTTTGTGTGTGCACATATAAGCATGAAAC [GTGCAC_site9910] | 10 ± 0.22 |
| ATGTTTCTATAGATTTGTACATATTTCATATGAATA [XGTACX_site1053] | 7.92 ± 0.54 |
| TTATTTTTTGTATGAACACACAACTTAATTATGATG [CACACA_site2448] | 7.82 ± 0.51 |
| TTTTACAAATATTTCTGTACACATTCTCATATAATT [XGTACX_site1974] | 8.13 ± 0.72 |
| TTTTTTAATTAATTACCTTTGAATGTGTATTAGGAC [GTGCAC_negctrl_site651] | 7.95 ± 0.29 |
| GAAAAGTATAAAAAACGTACAAGTTTTATTTTCACA [XGTACX_site4604] | 7.59 ± 0.55 |
| CCCCTATAAATAGGGTGTACTAATAAATATTTTTAA [XGTACX_site1244] | 8.96 ± 0.092 |
| ACGGGCGACACATAAGTGCGCAAAAAAAAAAAAATA [GTGCAC_site9688] | 9.39 ± 0.071 |
| TAAAATAAAAAGTTTACACACATATATAACTTTAAT [CACACA_site6456] | 7.51 ± 0.43 |
| AAAATACAGAAACACACACACACACCCATATATATA [CACACA_site3559] | 8.34 ± 0.78 |
| TTTTATAAAACATGTAGTACATGAAAAAAAAAATTT [XGTACX_site1626] | 8.04 ± 0.49 |
| GTATTCATTCCTTGAGTGCAATTGCAATAAATAAAA | 10.2 ± 0.13 |
| CATATTAAGATGTGTACACATTTTTATTTTTTTTTT [CACACA_site4425] | 7.8 ± 0.22 |
| ATGAATTTTTCTCTACAAAAGGATATAATAAAAATA [XGTACX_negctrl_site461] | 7.53 ± 0.45 |
| TTTTCTAATTAATATTGTACATAAATGTATATATAT [XGTACX_site4749] | 8.04 ± 0.54 |
| TAGTGTGCCAAATTAGCACACACATATATACATGAA [CACACA_site8910] | 9.04 ± 0.17 |

| Sequence | gcPBM binding intensity (ln) |
| --- | --- |
| GTTTTTATCATATCATGTACGTATTTTATTTTTTTT [XGTACX_site8643] | 8.21 ± 0.69 |
| CTTCTGGACAGGAATGCACACATTTTTTTTTCTTTT [CACACA_site1807] | 8.57 ± 0.57 |
| ATCAAAGATAAATTTACACACATATAAATATAAATA [CACACA_site7409] | 7.69 ± 0.28 |
| TATATATATATATATTGTACAAAGATTAATATATAA [XGTACX_site8433] | 9.28 ± 0.46 |
| ACTTAATTTTTTTATTGTACATGTAAATGAGGGAAA [XGTACX_site6305] | 8.25 ± 0.26 |
| TATTTTAATAAGAATAAATGAAATGAAATGAAATAT [CACACA_negctrl_site823] | 7.93 ± 0.64 |
| ACATCCTATAAATAGAGTACGTAAATTATAATACAC [XGTACX_site5338] | 8.3 ± 0.2 |
| TAATATATTTTTAACATGCACTGTATTTTAATATAT | 8.76 ± 0.35 |
| TAATTAAAGTTATCTACACACCTTTATAGATATATA [CACACA_site7778] | 7.53 ± 0.46 |
| TATAAAACAAATATATGTACATATCATAGTATAATA [XGTACX_site2965] | 7.68 ± 0.47 |
| TCTGGATTGGATTACAAGAAAATAAAATATAAAATA [CACACA_negctrl_site122] | 7.59 ± 0.54 |
| TATACAAATATATATGCACACACATATATGTATATG [CACACA_site9007] | 8.96 ± 0.14 |
| AATATAATATACATATGTACATATATATATATATAT [XGTACX_site8218] | 9.2 ± 0.64 |
| TATAACACACAATGATGTACATTACATTATTTTTTA [XGTACX_site2076] | 7.84 ± 0.33 |
| ATATATATATATATGTGTACATATTTTTTTGAAGTG [XGTACX_site248] | 9.46 ± 0.3 |
| TAATATAAATGAAAGGTGCTTTTGCTTTCTTTTTTT | 8.7 ± 0.23 |
| TTTTCTATATAACAACGTACATTTATTATATTATAA [XGTACX_site6148] | 8.06 ± 0.47 |
| AAAAAAAAAAAAAATACACACACACCGATATATATA [CACACA_site8142] | 8.33 ± 0.62 |
| ATACATATAATAATATGTACATATAATTATATATAT [XGTACX_site913] | 8.21 ± 0.7 |

| Sequence | gcPBM binding intensity (ln) |
| --- | --- |
| TATTACATAATATATGTACACACGCAAATACTTATA [CACACA_site7994] | 7.91 ± 0.26 |
| CAAAAAAAGTTATACACACACACACGGATATAAATA [CACACA_site6619] | 8 ± 0.54 |
| TAACAACGATACAATTGTACAAATTATATATATATA [XGTACX_site4687] | 9.34 ± 0.099 |
| AGCAAGACGGGGTGCACACAAACTAATATGCCGAAT [CACACA_site159] | 10.8 ± 0.57 |
| AATAATATATTATATGCATGTGTATAATTTGATATA [TGCATGCA_site1058] | 8.04 ± 0.45 |
| CAAAGGAAATGGTGTACACAATTTTTCCTTTTTCGT [CACACA_site4800] | 7.94 ± 0.31 |
| TTTGGTTATTTGACCTGTACACATTTAATTATTTTT [XGTACX_site5170] | 7.86 ± 0.41 |
| ATTATGAATTTAAGACGTACAAAAAATTTTTATTCA [XGTACX_site5682] | 7.8 ± 0.31 |
| ACAAGTATTCCTTTTGCACACCTTTCTGCACCTTAT [CACACA_site3873] | 10.8 ± 0.24 |
| ATTAAAATAATACGTACACACATGTATAATACATAT [CACACA_site1005] | 8.18 ± 0.21 |
| TTATAACATATAAACATGTTTCATCTTACGTATTTT [GTGCAC_negctrl_site694] | 7.83 ± 0.68 |
| TGTTATATCAATAATATATAATAATACCCTTCTTTT [CACACA_negctrl_site1682] | 7.28 ± 0.57 |
| ATAAGAATATATAGAGTGCGTTGAAGAATTATAATA | 9.89 ± 0.27 |
| ATATTTAATTTGTATGGTACAGTACGATCTTTCTTT [XGTACX_site5533] | 7.72 ± 0.48 |
| CCCTCAACGAATTTGAGTACACATTTTAAATGATAT [XGTACX_site7763] | 7.79 ± 0.36 |
| ATCGCAAGATTAATATAAGGAGAAACGTTTATATAT [GTGCAC_negctrl_site267] | 7.8 ± 0.57 |
| ATTTAAATAATATTCACACACAAAATTAAATTTTAA [CACACA_site6246] | 7.72 ± 0.4 |
| AAAAAATTAACCGTAACACACACACCGATATATATA [CACACA_site9312] | 8.18 ± 0.69 |
| AATCTAGGTATTTATACACACTAAAATAATATACGA [CACACA_site4515] | 7.82 ± 0.63 |
